# The list shows a part of the results. Sequences were assembled here from the parent chain. Values near 0.05 are background.
# B1: TEV protease; numbered along this chain (parent)
# chain: MGESLFKGPRDYNPISSSICHLTNESDGHTTSLYGIGFGPFIITNKHLFRRNNGTLVVQSLHGVFKVKDTTTLQQHLVDGRDMIIIRMPKDFPPFPQKLKFREPQREERICLVTTNFQTKSMSSMVSDTSCTFPSGDGIFWKHWIQTKDGQCGSPLVSTRDGFIVGIHSASNFTNTNNYFTSVPKNFMELLTNQEAQQWVSGWRLNADSVLWGGHKVFMVKPEEPFQPVKEATQL
# Variants of: B1
# Assay: raw area under fraction-flipped curve 0-4 h after induction (AUC4h, not background-subtracted), DNA-recorder readout of cleavage of the substrate (dimensionless); higher = more cleavage of the substrate by the protease variant
# Conditions: temperature: 34 °C; time window: 0-4 h after rhamnose induction
# Description: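 In vivo DNA recorder in E. coli TOP10(DE3) ΔrhaA at 34 °C. Each TEVp single-site mutant (parent TEVp 0) is paired with a single-site variant of the 7-mer TEVs (canonical ENLYFQ|S). The substrate sits between flexible linkers in a Bxb1-sfGFP-TEVs-SsrA fusion, so cleavage stabilises Bxb1 and speeds flipping of a recombination array, read by NGS. The value is the raw area under the fraction-flipped curve over 0-4 h after rhamnose induction (AUC4h), with ≥20 reads per time point. It is not background-subtracted; inactive controls average about 0.047.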
# 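Also: Bxb1 expression induced with 0.2% (w/v) L-rhamnose at OD600 near 0.5, cultures sampled hourly, flipped fraction per protease–substrate barcode pair counted by paired-end Illumina sequencing.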
Variant,area with substrate ENLYDQS,area with substrate ENLYEQS,area with substrate ENLYGQS,area with substrate ENLYHQS,area with substrate ENLYNQS,area with substrate ENLYPQS,area with substrate ENLYRQS,area with substrate ENLYSQS,area with substrate ENLYVQS,area with substrate ENLYKQS,area with substrate ENLYIQS,area with substrate ENLYLQS,area with substrate ENLYMQS,area with substrate ENLYWQS,area with substrate ENLYYQS,area with substrate ENLYQQS,area with substrate ENLYTQS
MGESLFKNPRDYNPISSSICHLTNESDGHTTSLYGIGFGPFIITNKHLFRRNNGTLVVQSLHGVFKVKDTTTLQQHLVDGRDMIIIRMPKDFPPFPQKLKFREPQREERICLVTTNFQTKSMSSMVSDTSCTFPSGDGIFWKHWIQTKDGQCGSPLVSTRDGFIVGIHSASNFTNTNNYFTSVPKNFMELLTNQEAQQWVSGWRLNADSVLWGGHKVFMVKPEEPFQPVKEATQL [G8N],0.0445,0.0553,0.0641,0.0378,0.0551,0.0709,0.062,0.0502,0.116,,,,,,,,
MGYSLFKGPRDYNPISSSICHLTNESDGHTTSLYGIGFGPFIITNKHLFRRNNGTLVVQSLHGVFKVKDTTTLQQHLVDGRDMIIIRMPKDFPPFPQKLKFREPQREERICLVTTNFQTKSMSSMVSDTSCTFPSGDGIFWKHWIQTKDGQCGSPLVSTRDGFIVGIHSASNFTNTNNYFTSVPKNFMELLTNQEAQQWVSGWRLNADSVLWGGHKVFMVKPEEPFQPVKEATQL [E3Y],0.056,0.0751,,,,,0.0559,0.066,0.177,0.0657,,,,,,,
MGESLFKGPRDYNPISSSICHLTNESDGHTTSLYGIGFGPFIITNKHLFRRNNGTLVVQSLHGVFKVKDTTTLQQHLVDGRDMIIIRMPKDFPPFPQKLKFREPQREERICDVTTNFQTKSMSSMVSDTSCTFPSGDGIFWKHWIQTKDGQCGSPLVSTRDGFIVGIHSASNFTNTNNYFTSVPKNFMELLTNQEAQQWVSGWRLNADSVLWGGHKVFMVKPEEPFQPVKEATQL [L112D],0.0558,,0.0625,0.0609,,,0.0545,,0.0501,0.0648,0.0586,0.0645,,,,,
MGESLFKGPRDYNPISSSICHLTNESDGHTTSLYGIGFGPFIITNKHLFRRNNGTLVVQSLHGVFKVKDTTTLQQHLVDGRDMIIIRMPKDFPPFPQKLKFREPQREERICLVTTNFQTKSMSSMVSDTSCTFPSGDGIFWKHWIQTKDGQCGSPLVSTRDGFIVGIHSASNFTNTNNYFTSVPKNFMELLTNQEAQQWVSGWRLNADSVLWGGHMVFMVKPEEPFQPVKEATQL [K216M],0.0477,,0.0505,,0.0492,0.0825,,0.0765,0.121,,0.103,,0.0925,0.0784,0.0518,,
MGESLFKGPRDYNPISSSICHLTNESDGHTTSLYGIGFGPFIITNKHLFRRNNGTLVVQSLHGVFKVKDTTTLQQHLVDGRDMIIIRMPKDFPPFPQKLKFREPQREERICLVTTNFQTKSMSSMVSDTSCTFPSGDGIFWKHWIQTKDGQCGSPLVSTRDGFIVGIHSASNFTNTNNYFTSVPKNFMELLTNQEAQQWVSGWRLNADSVLWGGHKVFMVKPEEPFQPVKEATGL [Q234G],0.0635,,,0.0577,0.0919,,,0.0691,0.139,0.0581,,,,,0.0732,0.0578,
MGESMFKGPRDYNPISSSICHLTNESDGHTTSLYGIGFGPFIITNKHLFRRNNGTLVVQSLHGVFKVKDTTTLQQHLVDGRDMIIIRMPKDFPPFPQKLKFREPQREERICLVTTNFQTKSMSSMVSDTSCTFPSGDGIFWKHWIQTKDGQCGSPLVSTRDGFIVGIHSASNFTNTNNYFTSVPKNFMELLTNQEAQQWVSGWRLNADSVLWGGHKVFMVKPEEPFQPVKEATQL [L5M],0.0586,0.0702,0.0591,0.0811,0.065,0.0749,,0.0834,0.145,0.0945,0.152,,,,0.0759,0.0714,0.0712
MGESLFKGPRDYNPISSSICHLTNESDGHTTSLYGIGFGPFIITNKHLFRRNNGTLVVQSLHGVFKVKDTTTLQQHKVDGRDMIIIRMPKDFPPFPQKLKFREPQREERICLVTTNFQTKSMSSMVSDTSCTFPSGDGIFWKHWIQTKDGQCGSPLVSTRDGFIVGIHSASNFTNTNNYFTSVPKNFMELLTNQEAQQWVSGWRLNADSVLWGGHKVFMVKPEEPFQPVKEATQL [L77K],0.0643,,,0.0595,0.0626,,,,0.0522,0.0585,0.0676,,,,,0.0643,
MGESLFKGPRDYNPISSSICHLTNESDGHTTSLYGIGFGPFIITNKHLFRRNNGTLVVQSLHGVFKVKDTTTLQQHLVDGRDMIIIRMPKDFPPFPQKLKFREPQREERICLVTTNFQTKSMSSMVSDTSCTFPSGDGIFWKHWIQTKDGQCGSPLVSTRDGFIVGIHSASNFYNTNNYFTSVPKNFMELLTNQEAQQWVSGWRLNADSVLWGGHKVFMVKPEEPFQPVKEATQL [T174Y],0.0537,0.0707,,0.0917,0.0687,,0.0786,0.0695,0.0983,0.0642,0.0915,,,,,0.0507,
MGESLFKGPRDYNPISSSICHLTNESDGHTTSLYGIGFGPFIITNKHLFRRNNGTLVVQSLHGVFKVKDTTTLQQHLVDGRDMIIIRMPKDFPPFPQKLKFREPQREERICLVTTNFQTKSMSSMVSDTSCTFPSGDGIFWKHWIQTKDGQCGSPLVSTRDGFIVGIHSASNFTNTNNYFTSVPKNFMELLTNQEAQQWVSGWRLNAISVLWGGHKVFMVKPEEPFQPVKEATQL [D208I],0.0604,0.061,0.0757,0.0668,0.0335,0.0605,0.0495,0.0594,0.0735,0.0428,0.0734,,0.0715,0.0683,0.0517,0.0727,
MGESLFKGPRDYNPNSSSICHLTNESDGHTTSLYGIGFGPFIITNKHLFRRNNGTLVVQSLHGVFKVKDTTTLQQHLVDGRDMIIIRMPKDFPPFPQKLKFREPQREERICLVTTNFQTKSMSSMVSDTSCTFPSGDGIFWKHWIQTKDGQCGSPLVSTRDGFIVGIHSASNFTNTNNYFTSVPKNFMELLTNQEAQQWVSGWRLNADSVLWGGHKVFMVKPEEPFQPVKEATQL [I15N],0.0699,0.0547,0.0542,0.0677,0.0503,0.06,0.0681,0.0534,0.0752,0.055,0.132,0.0481,,0.0407,0.0591,0.063,

# Source: the supplement of paper PMC12217912
